Hit rate of the full screen: of about 48,000 compounds, about 1,200 (2.5%) were called active. About 2% were inconclusive and are not listed.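 Rule for the calls: active = activation of at least 60% and not above a set upper limit (about 1 call in 100 departs from these limits); inconclusive = activation of 40% to 60%, or above that upper limit; inactive = activation under 40%.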 The list shows a part of the results.

Among the data in PubChem BioAssay AID1346428 (National Center for Advancing Translational Sciences (NCATS), 2018) are activation values, retold here.

UniProt O75388, sequence (O75388 whole entry, looked up): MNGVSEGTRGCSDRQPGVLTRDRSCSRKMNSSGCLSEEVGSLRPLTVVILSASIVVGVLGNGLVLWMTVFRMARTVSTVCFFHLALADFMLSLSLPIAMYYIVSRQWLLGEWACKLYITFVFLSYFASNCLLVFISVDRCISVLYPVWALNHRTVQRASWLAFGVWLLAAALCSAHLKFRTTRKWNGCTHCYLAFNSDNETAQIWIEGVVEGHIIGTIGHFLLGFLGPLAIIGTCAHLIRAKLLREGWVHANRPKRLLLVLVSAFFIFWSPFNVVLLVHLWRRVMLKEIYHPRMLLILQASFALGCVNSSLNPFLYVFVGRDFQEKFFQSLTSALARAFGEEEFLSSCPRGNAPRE

This test concerns the target Probable G-protein coupled receptor 32 (Homo sapiens) (UniProt O75388). Nature of the test: qHTS for Agonists of Human Resolvin D1 Receptor DRV1. Note: 0% is about no effect. The note with it: CHO-K1 GPR32 beta-arrestin PathHunter luminescence, 90 min; at 76.9 µM; active compounds read high; zero percent set by DMSO-only wells. The essentials:
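Readings come from a cell-based beta-arrestin complementation format: CHO-K1 GPR32 stable cells (2,500/well) treated 90 min with compounds, then beta-Gal substrate added for 1 h before chemiluminescence imaging.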
On to `Cn1nnnc1SCCCNCc1ccc(Cl)cc1`, for which the activation is inactive: 3.16%. Take `COC(=O)c1cc(NC(=O)CCc2c(C)nc3c(c(C)nn3C(C)(C)C)c2C)cc(C(=O)OC)c1`: the activation was inactive: -12.8%. In the case of `CC(C)c1ccc(C2Sc3ccccc3NC3=C2C(=O)c2ccccc23)cc1` (stereo not given), the activation was inactive: -59.6%. `Cc1ccc2c(c1)cc1c(=O)n(Cc3cccc(Cl)c3)nc(C)n12`: the activation is inactive: -12.7%.

Regarding `Cc1cc(C)c2c(c1)NC(=O)C2(O)c1c[nH]c2ccccc12` (stereo not given), the activation is inactive: 8.96%. Regarding `COc1ccc(CCNC(=O)Cc2c(C)c3cc4c(C(C)(C)C)coc4c(C)c3oc2=O)cc1OC`, the activation was inactive: -13.1%. Next, `Cc1ccc(CN2COc3ccc4c(C)cc(=O)oc4c3C2)cc1`: inactive: 5.01%. With `Cc1nc(N2CCOCC2)c2c(C(=O)N3CCN(c4ccccc4F)CC3)c(C)oc2n1`, the activation was inactive: -6.74%. As for `O=C(Nc1cc(Cl)ccc1Cl)c1cc(S(=O)(=O)NCCc2ccccc2)ccc1F`, the activation was inactive: -26.4%. For the molecule `O=C(NCc1ccc(Cl)cc1)c1cc2c(s1)-c1ccccc1SC2`, the activation is inactive: -17.1%. In the case of `COc1ccc(-c2nc3c(c(SCC(=O)Nc4cccc(O)c4)n2)Cc2c(CO)cnc(C)c2O3)cc1`, the activation was inactive: -4.63%. `CC1CCc2onc(C(=O)N3CCN(c4ccccc4)CC3)c2C1` (stereo not given): the activation is inactive: -23.5%. As to `O=C(COc1ccccc1F)Nc1ccccc1C(=O)OCc1cc(=O)n2nc(C3CC3)sc2n1`, the activation was inactive: -3.73%. As to `Cc1ccc(C(=O)N(Cc2ccco2)Cc2sccc2C)cc1`, the activation was inactive: -17.2%. On to `COc1ccc(-c2c(C#N)c(SCC(=O)Nc3cccc(Cl)c3)nc(C)c2C(=O)Nc2ccccc2)cc1OC`, for which the activation is inactive: -19.7%. `CCc1ccccc1NC(=O)Cn1c(=O)n(Cc2ccco2)c(=O)c2ccccc21`: the activation is inactive: 12.9%. `COc1cc(OC)cc(C(=O)Nc2cc3c(cc2N2CCCCC2)n(C)c(=O)n3C)c1`: the activation is inactive: -3.92%. On to `COc1ccc(CNC(=O)c2cnc3sc(N4CCC(C)CC4)nn3c2=O)c(OC)c1`, for which the activation was inactive: 28.2%. On to `CCCCCCCC(=O)OCC(O)CO` (stereo not given), for which the activation is inactive: 2.14%. Next, `c1ccc(-c2nc[nH]c2-c2ccccc2)cc1`: inactive: 15.3%; `Cc1ccc(N2C(=O)CC(c3ccccc3F)C3=C2COC3=O)cc1Cl` (stereo not given): inactive: -15.5%; `CCc1ccc(NC(=O)C2CCN(c3nn4cc(-c5ccc(OC)cc5)nc4s3)CC2)cc1`: inactive: -1.67%.

For the molecule `CCN(CC)C(=O)Cn1c(=O)n(-c2ccc(Cl)c(Cl)c2)c(=O)c2c(C)c(C(=O)N(CC)CC)sc21`, the activation is inactive: -10.9%. Next, `Cc1cccc(S(=O)(=O)Nc2cccc(-c3ccc(N4CCCCC4)nn3)c2)c1`: inactive: -24.3%; `CCc1nnc2c(N3CCN(c4cccc(C)c4)C(C)C3)nc3ccccc3n12` (stereo not given): inactive: -19.2%. Next, `CCOc1ccc(CCNC(=O)C2CCCN(S(=O)(=O)N(C)c3ccc(F)cc3)C2)cc1` (stereo not given): inactive: 4.06%; `CCS(=O)(=O)N1CCc2cc(C(=O)NCc3ccccc3OC)ccc21`: inactive: 2.72%; `COc1cccc(NC(=O)C2CCN(c3ccc(Sc4ccc(C)cc4)nn3)CC2)c1`: inactive: 10.7%.

As for `COc1ccc(NC(=O)CN2C(=O)COc3ccc(S(=O)(=O)N4CCOCC4)cc32)cc1`, the activation is inactive: -11.1%. As for `O=C(NCc1ccccc1)C(=O)Nc1c2c(nn1-c1ccc(F)cc1)CSC2`, the activation is inactive: -24.2%. With `Cc1ccccc1-c1nc2scc(CCNC(=O)c3ccco3)n2n1`, the activation is inactive: 6.72%. Consider `CCn1cc(CNC(=O)c2cc(-c3ccc(C)cc3)nc3ccc(Br)cc23)c(C)n1`, for which the activation was inactive: -3.5%. With `COc1cccc(NC(=O)C2CCC(CNS(=O)(=O)c3ccc4c(c3)CCCC(=O)N4)CC2)c1` (stereo not given), the activation was inactive: -10.7%. Next, `CCc1ccc2oc(-c3ccc(C)c(NC(=O)/C=C/c4ccco4)c3)nc2c1`: inactive: 5.9%; `O=C(CSc1nc(=O)n(Cc2ccco2)c2c1CCC2)NCc1ccccc1`: inactive: -36.9%. Consider `Clc1ccccc1OCCSc1nnc(-c2cccs2)o1`, for which the activation is inactive: 14.2%.

For the molecule `Cc1ccc2nc(/C(C#N)=C/c3ccccc3F)[nH]c2c1`, the activation was inactive: -4.89%. Consider `Cc1cccc(OCCSc2nnc(-c3cccs3)o2)c1`, for which the activation is inactive: 14.4%.

Consider `Cc1sc2ncn(CC(=O)N3CCN(c4ccccc4F)CC3)c(=O)c2c1S(=O)(=O)N1CCC(C)CC1`, for which the activation was inactive: -15.4%. Take `O=C(NC1CCCC1)c1ccc2c(=O)n(Cc3ccccc3)c(SCc3ccccc3F)nc2c1`: the activation was inactive: -5.54%. Regarding `COc1ccc(Cl)cc1-n1cc(-c2ccccc2)nc1SCC(=O)Nc1ccc(C)cc1`, the activation was inactive: -18.1%. For the molecule `COc1ccccc1CNC(=O)C1CCN(c2nc3ccc(C)cc3[nH]2)CC1`, the activation was inactive: -13.7%. For the molecule `CCOc1ccc(CCNC(=O)c2cc3c(-c4ccccc4F)nn(C)c3s2)cc1`, the activation was inactive: -4.49%.

Turning to `CCc1ccc(CNC(=O)CCCn2ccc3cc(S(=O)(=O)N4CCCC4)ccc32)cc1`, the activation was inactive: -14.5%. For the molecule `Cc1ccc(S(=O)(=O)c2nc(-c3ccc(F)cc3)oc2SCC(=O)NC2CCCCC2)cc1`, the activation was inactive: 0.982%. On to `COc1ccc(-c2cc(-c3ccc(C)cc3)nc3c2COc2ccccc2-3)cc1`, for which the activation was inactive: -6.2%. Regarding `CCC(Cn1nnc2ccccc2c1=O)NC(=O)Nc1ccccc1OC` (stereo not given), the activation is inactive: 9.71%. `COC(=O)c1ccccc1NC(=O)Cn1cnc2sc(C)c(S(=O)(=O)N3CCC(C)CC3)c2c1=O`: the activation was inactive: -9.1%. Turning to `COc1cccc(Nc2nc3cc(C)ccc3nc2NS(=O)(=O)c2ccc(Cl)cc2)c1`, the activation was inactive: 29.1%. On to `CCOc1ccc(C2C(=O)N(C3CCCCCC3)CC(=O)N2Cc2ccccc2)cc1OC` (stereo not given), for which the activation was inactive: -18.5%. Regarding `COc1ccc(NC(=O)/C=C\C(=O)N(c2ccc(C(C)C)cc2)C(C(=O)NCc2ccco2)c2ccc(C)cc2)cc1` (stereo not given), the activation is inactive: -24.6%.

In the case of `Cc1nc2ccccn2c(=O)c1NC(=O)c1cccc(F)c1`, the activation is inactive: -3.11%. For the molecule `NC(=Nc1ccccc1)NC(=O)c1nc(Cl)c(N)nc1N`, the activation was inactive: 1.38%. Consider `CCOC(=O)c1cccc(NC(=O)c2ncoc2-c2ccco2)c1`, for which the activation is inactive: -6.18%.

Consider `Cc1ccc(NC(=O)C2(C)Cc3ccccc3C(=O)O2)c(C)c1` (stereo not given), for which the activation is inactive: 47.3%. In the case of `Cc1ccccc1N(C)S(=O)(=O)c1nnc(NC(=O)c2ccco2)s1`, the activation is inactive: 1.42%.

For `CCOC(=O)c1cc(-c2ccc(OC)cc2)n(CCC(=O)NCCc2ccccc2)c1C`, the activation was inactive: -25.9%. As to `COc1cccc(C(=O)NCCc2csc3nc(-c4ccccc4F)nn23)c1OC`, the activation is active: 68.4%.

As to `COc1ccc(CCNC(=O)c2ccc3c(c2)sc2nc(-c4ccccc4)cn23)cc1OC`, the activation was inactive: -11.6%. Next, `Cc1cc(OCC(=O)NCCc2nc3ccccc3[nH]2)cc(C)c1Cl`: inactive: -16%; `O=S(=O)(c1ccccc1)c1nc(-c2ccccc2Cl)oc1N1CCCCCC1`: inactive: -24%. In the case of `Cc1cc(C)c(S(=O)(=O)NCCS(=O)(=O)N2CCN(c3ccccc3)CC2)c(C)c1`, the activation is inactive: -41.7%. Regarding `Cc1ccc(S(=O)(=O)C(CNC(=O)c2c(F)cccc2F)c2ccco2)cc1` (stereo not given), the activation was inactive: 4.03%. For `Cc1cccc(C(=O)N2CCc3cc(CNC(=O)c4cc5ccccc5[nH]4)ccc32)c1`, the activation was inactive: -6.25%. Next, `CCn1nc(C)c(CCN(C)C(=O)Nc2cccc(Cl)c2C)c1C`: inactive: 11.7%. As to `Cc1ccc(CNC(=O)C(C)n2c(=O)cc(C(F)(F)F)c3c(C)nn(C)c32)cc1` (stereo not given), the activation is inactive: -3.02%. On to `COc1ccc(CNC(=O)Cc2c(C(=O)O)c(C)cn2C)cc1`, for which the activation is inactive: 1.63%. For `COc1ccc(-c2nc3scc(CCNS(=O)(=O)c4ccc5c(c4)OCCO5)n3n2)cc1OC`, the activation is inactive: -11.4%. For the molecule `O=C(NCc1ccc(F)cc1Cl)c1cc(=O)[nH]c2ccc(S(=O)(=O)N3CCCCC3)cc12`, the activation was inactive: -13.6%. As to `Cc1ncc([N+](=O)[O-])n1CC(C)O` (stereo not given), the activation is inactive: -0.393%. `CCOc1ccc(C(=O)Nc2c(C(=O)Nc3ccccc3OC)oc3ccccc23)cc1OCC`: the activation was inactive: 6.44%. As for `Cc1cc(C)cc(OCCSc2nc3ccc(NC(=O)c4cccs4)cc3s2)c1`, the activation is inactive: -9.01%. Regarding `Cc1c(-c2ccccc2)c(=O)oc2ccc(OC(=O)N3CCOCC3)cc12`, the activation was inactive: -12.6%.

As for `C/C=C(/C(=C/C)c1ccc(O)cc1)c1ccc(O)cc1`, the activation was inactive: 41.3%. Consider `O=C(Cn1cc(C(=O)C2CCCCC2)c2ccccc21)Nc1ccccc1Cl`, for which the activation was inactive: 3.23%. Next, `COc1ccc2c(C)c(CC(=O)NCCc3ccc(Cl)cc3)c(=O)oc2c1C`: inactive: -6.74%; `CCOc1ccc(NC(=O)CSC2=Nc3ccccc3C3=NC(CC(=O)NCc4cccs4)C(=O)N23)cc1` (stereo not given): inactive: -23.3%; `COc1cc(-c2cc(OC)c3c(C)oc(C)c3c(=O)c2)ccc1OC(=O)c1ccc(C)cc1`: inactive: -29.1%. Next, `O=C(CSc1n[nH]c(-c2ccccc2Cl)n1)NCCCc1ccccc1`: inactive: 6.99%. Turning to `OC1(c2ccc(Cl)cc2)CCN(Cc2c[nH]c3ccccc23)CC1`, the activation is inactive: 7.23%.

With `CC(CCc1ccccc1)NC(=O)Cn1c(=O)nc(-c2ccccc2)c2cc(Cl)ccc21` (stereo not given), the activation was inactive: -16.3%. For `CCc1ccc2oc(C(=O)N(Cc3ccc(N(C)C)cc3)Cc3ccco3)c(C)c2c1`, the activation was inactive: -48%. For the molecule `CC1=C(c2ccc(C)c(C)c2)S(=O)(=O)N=C1N1CCC(C(=O)NC(C)c2ccccc2)CC1` (stereo not given), the activation is inactive: -12.3%.

For `CCCN(CCC)C(=O)c1cc2c(=O)n3cccc(C)c3nc2s1`, the activation was inactive: 3.73%. Consider `Cc1ccc(-c2cn3c(n2)sc2cc(C(=O)NCCCN4CCCCCC4)ccc23)cc1`, for which the activation was inactive: 6.44%.
